From PubChem BioAssay AID624172 (National Center for Advancing Translational Sciences (NCATS), 2012)
“And” between values parts separate entries of the source, which are not always exact repeats. Equal entries are not always repeated. About 25 (0.007%) of roughly 380,000 compounds were called active. Inconclusive results, whose numbers are uncertain, are shown with a selection of clear calls. Calls follow the shape of the dose curve; as a rule, active = well fitted activation curve with a large enough effect; inconclusive = small, poorly fitted or top-dose-only effect; inactive = no such curve, though single readings can be large or run the other way. Potencies of inconclusive entries are left out as doubtful fits.

Biological target: Glucagon-like peptide 1 receptor (Homo sapiens) (UniProt P43220)
Sequence of UniProt P43220 (P43220 whole entry, looked up): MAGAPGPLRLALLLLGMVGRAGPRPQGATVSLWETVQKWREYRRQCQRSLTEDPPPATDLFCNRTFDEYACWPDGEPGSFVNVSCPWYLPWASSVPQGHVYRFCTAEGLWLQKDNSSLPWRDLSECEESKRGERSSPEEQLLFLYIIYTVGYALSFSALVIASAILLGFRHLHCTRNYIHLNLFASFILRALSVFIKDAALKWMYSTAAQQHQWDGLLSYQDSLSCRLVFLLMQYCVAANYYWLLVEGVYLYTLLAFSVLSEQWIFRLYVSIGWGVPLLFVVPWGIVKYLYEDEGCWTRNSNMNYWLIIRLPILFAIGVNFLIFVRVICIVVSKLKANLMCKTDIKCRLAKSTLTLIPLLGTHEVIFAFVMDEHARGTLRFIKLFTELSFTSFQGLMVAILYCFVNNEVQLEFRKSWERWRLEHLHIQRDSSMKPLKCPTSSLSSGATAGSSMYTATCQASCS
Assay: qHTS of GLP-1 Receptor Agonists; as to activation: % of control where 0% means no effect
Details: HEK293 GLP-1R CRE-luciferase, luminescence, 4-6 h, cells express a hypersensitive GLP-1R form; activation: at 45.6 µM (top of the series) unless noted
Potency is read from the fitted curve at half-maximal effect; tags tell the direction and shape of the fitted curve.

Which Potency does the source give for `CN1CCN(C(=O)CSc2nc(-c3cccs3)ccc2C#N)CC1` here?
Its Potency is inconclusive [activator, partial curve].

Which Potency does the source give for `Cc1ccc(Nc2nc(-c3ccc(O)cc3O)cs2)nc1` here?
The Potency was inconclusive [activator, partial curve, poor fit].

For `CCN(CC)CCNc1ncnc2c1sc1nc(N3CCCC3)c3c(c12)CC(C)(C)OC3`, which Potency is on record?
The Potency was inconclusive [activator, full curve].

Which Potency does the source give for `CSc1ncccc1C(=O)OCc1cccc([N+](=O)[O-])c1` here?
The Potency was inconclusive [activator, single point].

For `CCOC(=O)c1c(C)nc2ccc(Cl)cc2c1-c1ccccc1`, which Potency is on record?
The Potency was inconclusive [activator, single point].

For `COC(=O)C1=CN(Cc2ccc(OC)c(OC)c2)C=C(C(=O)OC)C1c1cccc(F)c1`, which Potency is on record?
The Potency was inconclusive [activator, partial curve, poor fit].

`O=C(CNc1ccc(Br)cc1)Nc1ccc(S(=O)(=O)N2CCCC2)cc1` was tested. Which Potency did it give?
The Potency was “inactive”.

For `FC(F)(F)c1cccc(-c2cc3nc(NCCCn4ccnc4)ccn3n2)c1`, which Potency is on record?
The Potency was “inactive”.

How did the Potency turn out when `CCN(CC)/C(=N\S(=O)(=O)c1ccc(F)cc1)c1ccccc1` was run?
The Potency was inconclusive [activator, full curve, poor fit].

How did the Potency turn out when `Cc1ccccc1-c1nc(C(=O)NCC2CCCO2)cc2c1[nH]c1ccccc12` (stereo not given) was run?
Its Potency is inconclusive [activator, partial curve, poor fit].

With `CC1CCCc2sc3nc(N4CCN(CCO)CC4)n4ncnc4c3c21` (stereo not given) as the molecule, how does the Potency read?
Its Potency is inconclusive [activator, partial curve].

For `Cc1ccsc1CN(C)CC(=O)Nc1ccc([N+](=O)[O-])cc1Cl`, which Potency is on record?
Its Potency is inconclusive [activator, partial curve, poor fit].

`Cc1ccc(-c2nnc3c4ccccc4c(C)nn23)cc1S(=O)(=O)N1CCN(CCO)CC1` was tested. Which Potency did it give?
The Potency was inconclusive [activator, full curve, poor fit].

`CCOC(=O)C(C)Sc1nc(-c2ccccc2)ccc1C#N` (stereo not given) was tested. Which Potency did it give?
The Potency was inconclusive [activator, partial curve].

`OC(c1ccc(F)c(F)c1)c1nc(-c2cnc3ccccc3c2)cs1` (stereo not given) was tested. Which Potency did it give?
Its Potency is inconclusive [activator, partial curve, poor fit].

For `O=C(Cn1c(=O)oc2cc(S(=O)(=O)N3CCCC3)ccc21)N1CCN(c2ccccc2)CC1`, which Potency is on record?
The Potency was “inactive”.

`COc1ccc(-c2[nH]c(-c3cc(OC)c4c(c3)OCO4)nc2-c2ccccc2)cc1` was tested. Which Potency did it give?
The Potency was “inactive”.

`Nc1nc(NCCCN2CCOCC2)nc(Nc2cccc(Cl)c2)c1[N+](=O)[O-]` was tested. Which Potency did it give?
Its Potency is inconclusive [activator, partial curve].

For `Oc1ccc(Nc2ccnc3cc(Cl)ccc23)cc1`, which Potency is on record?
Its Potency is inconclusive [activator, partial curve, poor fit].

`CC(C)Nc1nc(Nc2ccccc2Cl)c2sccc2n1` was tested. Which Potency did it give?
The Potency was inconclusive [activator, partial curve, poor fit].

How did the Potency turn out when `COCOc1cccc(CN2CCC2(C)C(=O)Nc2ccc3c(c2)OCO3)c1` (stereo not given) was run?
Its Potency is inconclusive [activator, partial curve, poor fit].

How did the Potency turn out when `O=C(/C=C\c1ccc(-c2cccc([N+](=O)[O-])c2)o1)N1CCOCC1` was run?
The Potency was inconclusive [activator, partial curve, poor fit].

Which Potency does the source give for `COc1ccc(Cl)cc1C(=O)NNC(=S)NC(=O)c1cc(-c2ccc(Cl)cc2)nc2ccccc12` here?
Its Potency is “inactive”.

`Cc1ccc(C)c(Nc2c([N+](=O)[O-])ccc3nonc23)c1` was tested. Which Potency did it give?
Its Potency is inconclusive [activator, partial curve, poor fit].

For `Cc1nc(NCCc2ccc(O)cc2)c2nnn(Cc3ccccc3)c2n1`, which Potency is on record?
Its Potency is inconclusive [activator, partial curve].

`CCN1C(=O)c2cccc3c(S(=O)(=O)NC(Cc4c[nH]c5ccccc45)C(=O)O)ccc1c23` (stereo not given) was tested. Which Potency did it give?
The Potency was “inactive”.

How did the Potency turn out when `COCCCNC(=O)/C(C#N)=C/c1ccc(OCC(=O)O)c(OC)c1` was run?
Its Potency is “inactive”.

`CC(C)(C)c1ccc(C(=O)N2CCNCC2)cc1` was tested. Which Potency did it give?
The Potency was inconclusive [activator, partial curve, poor fit].

`CC(NC(=O)CN1C(=O)COc2ccccc21)c1ccccc1` (stereo not given) was tested. Which Potency did it give?
Its Potency is inconclusive [activator, partial curve, poor fit].

For `CCc1ccc2c(c1)C1(NN=C(c3ccc(C)cc3)S1)C(=O)N2` (stereo not given), which Potency is on record?
The Potency was inconclusive [activator, single point].

For `COc1cc(C(C)=O)ccc1OCc1nnc(-c2ccccc2Br)o1`, which Potency is on record?
Its Potency is inconclusive [activator, single point].

How did the Potency turn out when `CC1CCCc2sc3nc(NCc4ccco4)n4ncnc4c3c21` (stereo not given) was run?
The Potency was inconclusive [activator, single point].

Which Potency does the source give for `COc1cc(SC)ccc1C(=O)Nc1ccccc1` here?
Its Potency is inconclusive [activator, full curve].

For `C=CCn1c(SCC(=O)N2CCOCC2)nc2sc(C)c(C)c2c1=O`, which Potency is on record?
The Potency was inconclusive [activator, partial curve, poor fit].

`COc1ccc(OCC(O)COc2ccc(OC)cc2)cc1` was tested. Which Potency did it give?
The Potency was inconclusive [activator, single point].

How did the Potency turn out when `C=CCN1C(c2cccc(C(F)(F)F)c2)=CS/C1=C(/C#N)c1nnc(N2CCOCC2)n1-c1ccccc1` was run?
The Potency was inconclusive [activator, single point].

Which Potency does the source give for `CC1=C(C(=O)OCCOc2ccccc2)C(c2ccsc2)NC(=O)N1C` (stereo not given) here?
Its Potency is inconclusive [activator, single point].

For `CC(=O)Nc1ccc(SCC(=O)c2cc(C)n(Cc3cccs3)c2C)cc1`, which Potency is on record?
The Potency was “inactive”.

How did the Potency turn out when `COc1ccc(F)cc1-c1cc(NC=O)c2ncc(-c3cccc(C(F)(F)F)c3)n2c1` was run?
Its Potency is inconclusive [activator, single point].

With `COc1cccc(/C=N/n2c(C)nc3ccccc32)c1OC` as the molecule, how does the Potency read?
Its Potency is inconclusive [activator, single point].

Which Potency does the source give for `Cc1nc(N)nc(N(C)c2ccccc2)c1Br` here?
Its Potency is inconclusive [activator, single point].

For `COc1ccccc1C(=O)NC(C)c1cccc2ccccc12` (stereo not given), which Potency is on record?
The Potency was inconclusive [activator, single point].

`OCc1cc(C(O)CNCCCCCCOCCCCc2ccccc2)ccc1O` (stereo not given) was tested. Which activation did it give?
Its activation is inconclusive: 40.9% [activator] and inconclusive: 42.4% [activator].

`CCOC(=O)c1c(-c2ccc(F)cc2)csc1/N=C/N(C)C` was tested. Which Potency did it give?
The Potency was inconclusive [activator, single point].

For `COc1ccc(N=Nc2c(C)[nH][nH]c2=O)cc1`, which Potency is on record?
The Potency was inconclusive [activator, partial curve, poor fit].

With `CCN1CCN(C(=S)NCC2CCCO2)CC1` (stereo not given) as the molecule, how does the Potency read?
Its Potency is inconclusive [activator, single point].

For `CCCCNc1c(-c2ccc(SC(C)CC)cc2)nc2ccc(Cl)cn12` (stereo not given), which Potency is on record?
The Potency was inconclusive [activator, single point].

For `C=Cc1ccc(Cn2nc(-c3ccc(C)cc3)ccc2=O)cc1`, which Potency is on record?
The Potency was inconclusive [activator, partial curve, poor fit].

For `O=c1c2ccccc2oc2cc(NCCCN3CCOCC3)ccc12`, which Potency is on record?
Its Potency is inconclusive [activator, partial curve].

With `CC(=O)CCc1ccc(Oc2nc(-c3cccnc3)nc3ccccc23)cc1` as the molecule, how does the Potency read?
Its Potency is inconclusive [activator, partial curve, poor fit].

How did the activation turn out when `N#CC(c1ccncc1)(c1ncc(C(F)(F)F)cc1Cl)N1CCOCC1` (stereo not given) was run?
Its activation is inconclusive: 69.3% [activator].

`CSc1nc(C)c2c(n1)N(c1ccc(O)cc1)CC2` was tested. Which Potency did it give?
The Potency was inconclusive [activator, partial curve, poor fit].

For `Cc1nn(-c2ccccc2)c(N)c1N=Nc1ccccc1`, which Potency is on record?
The Potency was “inactive”.

`Cc1ccc(/C(N)=N/OC(=O)c2ccc(F)cc2)cc1` was tested. Which Potency did it give?
The Potency was “inactive”.

How did the Potency turn out when `c1ccc2c(c1)CCN(c1nc3ccccc3n3cnnc13)C2` was run?
Its Potency is inconclusive [activator, partial curve].

For `CCOC(=O)c1c(-c2ccccc2)csc1NC(=O)CSc1ccccc1`, which Potency is on record?
The Potency was “inactive”.

For `Cc1cccc(CCN2C(Nc3ccccc3)=NC[C@@H]2CC(C)C)c1`, which Potency is on record?
The Potency was “inactive”.

With `O=C(Nc1ccc2c(c1)OCO2)OCc1ccccc1` as the molecule, how does the Potency read?
The Potency was “inactive”.

How did the Potency turn out when `O=C(CN1CCOCC1)Nc1c2c(nc3c1CCC3)CCC2` was run?
The Potency was inconclusive [activator, partial curve, poor fit].

With `COc1ccc2c(CSc3nc4nc(C)cc(C)n4n3)cc(=O)oc2c1` as the molecule, how does the Potency read?
Its Potency is inconclusive [activator, single point].

`Cc1ccc(N(CC(=O)Nc2ccc(Cl)cc2)S(=O)(=O)c2cccc3nonc23)cc1` was tested. Which Potency did it give?
Its Potency is “inactive”.

For `CCn1c(SCC(=O)OC)nc2sc3c(c2c1=O)CC(C)(C)OC3`, which Potency is on record?
Its Potency is inconclusive [activator, partial curve, poor fit].

`COc1ccc(S(=O)(=O)N(C)C)cc1NC(=O)c1ccc(OCC(=O)N2CCOCC2)c(OC)c1` was tested. Which Potency did it give?
Its Potency is inconclusive [activator, single point].

For `CCC1(CC)Cc2ccccc2-c2nc(CN(C)C)[nH]c(=O)c21`, which Potency is on record?
Its Potency is inconclusive [activator, full curve].

For `Cc1nn(Cc2ccccc2)c(Cl)c1C(=O)OC(C)C#N` (stereo not given), which Potency is on record?
The Potency was inconclusive [activator, partial curve].
